# Test results taken from PubChem BioAssay AID720708 (National Center for Advancing Translational Sciences (NCATS), 2013).
# Several values for one entry are separate records, joined by “and”; a condition that tells them apart may be missing. Equal values may be shown once. About 660 (0.18%) of roughly 360,000 compounds were called active. Inconclusive results, whose numbers are uncertain, are shown with a selection of clear calls. The call rests on the fitted dose curve; in most records, active means well fitted inhibition curve with a large enough effect; inconclusive means small, poorly fitted or top-dose-only effect; inactive means no such curve, though single readings can be large or run the other way. Where the call is inconclusive, the potency comes from a doubtful curve fit.
# Molecular target: Rap guanine nucleotide exchange factor 4 (Homo sapiens) (UniProt Q8WZA2)
# Chain of UniProt Q8WZA2 (Q8WZA2 whole entry, looked up): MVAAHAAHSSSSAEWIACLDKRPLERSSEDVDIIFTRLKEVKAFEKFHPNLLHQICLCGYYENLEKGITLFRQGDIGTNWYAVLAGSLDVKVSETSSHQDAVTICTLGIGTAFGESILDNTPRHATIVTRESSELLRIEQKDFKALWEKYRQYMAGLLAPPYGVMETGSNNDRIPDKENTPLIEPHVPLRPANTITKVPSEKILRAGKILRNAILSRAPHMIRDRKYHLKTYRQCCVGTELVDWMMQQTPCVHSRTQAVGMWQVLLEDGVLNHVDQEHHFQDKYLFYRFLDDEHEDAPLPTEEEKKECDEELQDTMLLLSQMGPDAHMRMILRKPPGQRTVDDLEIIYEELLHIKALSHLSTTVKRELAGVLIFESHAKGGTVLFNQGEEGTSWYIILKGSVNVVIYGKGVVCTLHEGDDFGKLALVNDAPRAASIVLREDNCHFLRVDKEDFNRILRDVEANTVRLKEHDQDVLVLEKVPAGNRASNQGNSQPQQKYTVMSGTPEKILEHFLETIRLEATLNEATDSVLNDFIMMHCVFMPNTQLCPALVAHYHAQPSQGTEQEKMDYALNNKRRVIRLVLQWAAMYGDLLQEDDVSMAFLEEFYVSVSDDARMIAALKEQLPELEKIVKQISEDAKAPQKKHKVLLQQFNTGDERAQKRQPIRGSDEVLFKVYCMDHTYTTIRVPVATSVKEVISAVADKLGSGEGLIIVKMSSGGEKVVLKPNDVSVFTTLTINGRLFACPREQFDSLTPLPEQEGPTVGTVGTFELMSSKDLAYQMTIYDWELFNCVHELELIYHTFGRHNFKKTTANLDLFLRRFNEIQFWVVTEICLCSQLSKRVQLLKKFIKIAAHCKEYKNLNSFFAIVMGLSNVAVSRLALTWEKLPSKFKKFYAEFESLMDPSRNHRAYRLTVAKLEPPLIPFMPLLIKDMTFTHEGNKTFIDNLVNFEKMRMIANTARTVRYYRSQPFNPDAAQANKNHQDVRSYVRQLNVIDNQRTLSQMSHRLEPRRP
# Experiment: qHTS for Antagonist of cAMP-regulated guanine nucleotide exchange factor 2 (EPAC2): primary screen; further: nearly all actives have a fitted effect of over 45% in size
# Settings: EPAC2 GEF exchange of Rap1B-BODIPY-GDP, fluorescence; series mostly up to 114 µM
# Potency means the concentration at half of the fitted maximal effect; tags describe the fitted curve by direction and shape.
row,Structure (SMILES),Potency
1,COc1ccc(C(c2nnnn2-c2ccc(OC)cc2)N2CCC(n3c(=O)[nH]c4ccccc43)CC2)cc1 (stereo not given),"inconclusive: 89.1 µM [inhibitor, single point]"
2,CC(C)CCOP(=O)(c1ccc(N(C)C)cc1)C(O)c1ccc(Cl)cc1Cl (stereo not given),active: 35.5 µM
3,CCOC(=O)[C@]12Cc3ccccc3[C@H]1N(Cc1ccccc1)C(=O)c1ccccc12,"inconclusive: 20 µM [inhibitor, full curve]"
4,O=C1NCN(c2ccccc2)C12CCN(C(c1cc3ccccc3o1)c1nnnn1C1CCCC1)CC2 (stereo not given),"inconclusive: 7.94 µM [inhibitor, full curve]"
5,COc1ccc(-n2nnnc2C(C2CC2)N2CCC(n3c(=O)[nH]c4ccccc43)CC2)cc1 (stereo not given),"inconclusive: 39.8 µM [inhibitor, partial curve]"
6,COc1ccc2c(c1)NP(=S)(c1ccccc1)N2C (stereo not given),"inconclusive: 50.1 µM [inhibitor, partial curve]"
7,CN(c1ccc(O)cc1)c1ccc([N+](=O)[O-])c2nonc12,inactive
8,COc1ccc(OC)c(NP(=O)(Oc2ccccc2)Oc2ccccc2)c1,"inconclusive: 56.2 µM [inhibitor, partial curve]"
9,CCCOP(=O)(c1ccc(N(C)C)cc1)C(O)c1ccc(Cl)cc1Cl (stereo not given),"inconclusive: 79.4 µM [inhibitor, partial curve]"
10,COc1cccc(-n2c(/C=C/c3ccc(O)c(O)c3)nc3ccccc3c2=O)c1,"inconclusive: 79.4 µM [inhibitor, single point]"
11,COC(=O)C1=C(c2ccc(F)cc2F)C[C@@H]2CC[C@H]1N2C(=O)NCc1ccc(F)cc1,"inconclusive: 89.1 µM [inhibitor, single point]"
12,COc1cccc(NP(=O)(Oc2ccccc2Cl)Oc2ccccc2Cl)c1,"inconclusive: 44.7 µM [inhibitor, partial curve]"
13,Cc1ccc(C(O)P(=O)(OCCC(C)C)c2ccc(N(C)C)cc2)cc1 (stereo not given),"inconclusive: 79.4 µM [inhibitor, partial curve]"
14,COc1ccc(-n2c(/C=C/c3cccc(F)c3)nc3ccccc3c2=O)c(OC)c1,"inconclusive: 17.8 µM [inhibitor, full curve]"
15,Oc1ccc(Cl)cc1Cc1cc(Cl)ccc1O,active: 79.4 µM
16,CC(OC(=O)COc1ccc(Nc2ccccc2)cc1)C(=O)N(C)c1ccccc1 (stereo not given),"inconclusive: 31.6 µM [inhibitor, full curve, poor fit]"
17,CCc1nc2ccccc2c(=O)n1-c1ccccc1OC,"inconclusive: 50.1 µM [inhibitor, partial curve]"
18,O=C(Nc1cc(Cl)cc(Cl)c1)N1Cc2ccccc2-n2nncc2C1,inactive
19,C/C(O)=C(\C#N)C(=O)Nc1cc(Br)ccc1Br,"inconclusive: 70.8 µM [inhibitor, single point]"
20,CCOC(=O)C(=O)NC1CCSC1=O (stereo not given),inactive
21,CCC(=O)O[C@H]1CC[C@H]2[C@@H]3CCC4=CC(=O)CC[C@]4(C)[C@H]3CC[C@]12C,"inconclusive: 79.4 µM [inhibitor, partial curve]"
22,COc1ccc(CN2CCCC(C(=O)c3ccc(Cl)cc3)C2)c(O)c1 (stereo not given),"inconclusive: 79.4 µM [inhibitor, partial curve]"

row,Structure (SMILES),Potency
1,Nc1ccccc1C(=O)OCCc1ccccc1,"inconclusive: 44.7 µM [inhibitor, partial curve]"
2,COC(=O)C(O)(c1ccc(N(C)C(=O)OC(C)C)cc1)C(F)(F)F (stereo not given),inactive
3,O=C(C[C@@H]1CC[C@@H]2[C@H](COC[C@H](O)CN2Cc2cccc(C(F)(F)F)c2)O1)NCc1ccc(Cl)cc1,"inconclusive: 39.8 µM [inhibitor, partial curve]"
4,CCCCOC(=O)c1ccccc1N,"inconclusive: 79.4 µM [inhibitor, partial curve]"
5,COC(=O)C1=C(c2ccc(F)cc2OCc2ccccc2)C[C@@H]2CC[C@H]1N2C(=O)NCc1ccc([N+](=O)[O-])cc1,"inconclusive: 22.4 µM [inhibitor, full curve]"
6,Clc1ccc(COC(Cn2ccnc2)c2ccc(Cl)cc2Cl)c(Cl)c1 (stereo not given),"inconclusive: 50.1 µM [inhibitor, partial curve] and inconclusive: 39.8 µM [inhibitor, partial curve]"
7,COC(=O)C1=C(c2cc3ccccc3o2)C[C@@H]2CC[C@H]1N2C(=O)NC(C)C,"inconclusive: 28.2 µM [inhibitor, single point]"
8,COC(=O)C1=C(c2ccc(OC(F)(F)F)cc2)C[C@@H]2CC[C@H]1N2C(=O)NC1CC1,"inconclusive: 39.8 µM [inhibitor, partial curve]"
9,Cc1c(C(=O)c2ccccc2)c2ccccc2n1C,"inconclusive: 8.91 µM [inhibitor, full curve, poor fit]"
10,Cc1ccc(C(=O)c2cc(Br)ccc2N)cc1,"inconclusive: 79.4 µM [inhibitor, partial curve]"
11,CN(C(=O)Oc1cccc2cccnc12)c1ccccc1,inactive
12,Cn1cc(C=C2C(=O)NC(=O)NC2=O)c2ccccc21,inactive
13,CCOP(=O)(OCC)C(NS(=O)(=O)c1ccccc1)C(Cl)(Cl)Cl (stereo not given),"inconclusive: 39.8 µM [inhibitor, single point]"
14,CC(=O)c1cn(CCCOc2ccccc2)c2ccccc12,"inconclusive: 39.8 µM [inhibitor, partial curve]"
15,CCOc1cc2c(cc1OCC)-n1cccc1C(c1ccc(C(C)C)cc1)NC2 (stereo not given),"inconclusive: 89.1 µM [inhibitor, single point]"
16,CCOC(=O)[C@]12Cc3cc(Cl)ccc3[C@H]1N(C1CCCCC1)C(=O)c1cc(OC)ccc12,"inconclusive: 35.5 µM [inhibitor, full curve, poor fit]"
17,COC(=O)C1C2c3ccccc3C(c3ccccc32)C1(C)C(=O)OC (stereo not given),active: 31.6 µM
18,CN1C(=O)N(C)C(=O)C2(Cc3cc([N+](=O)[O-])ccc3N(C)C2c2ccccc2)C1=O (stereo not given),"inconclusive: 100 µM [inhibitor, single point]"
19,CN1CCN(c2c(N)c(=O)oc3ccccc23)CC1,inactive
20,Cc1cc(C)c2c(c1)-c1cc(C)nn1C(c1cccnc1)N2 (stereo not given),"inconclusive: 100 µM [inhibitor, partial curve]"
21,CCCn1c(C)c(C(=O)c2cccc3ccccc23)c2ccccc21,"inconclusive: 7.94 µM [inhibitor, full curve]"
22,C=CC[C@@H](CC(=O)N(CCO)Cc1ccccc1)C(=O)NC[C@H](OC(=O)[C@@H](CC=C)CC(=O)OC(C)(C)C)c1ccccc1,"inconclusive: 15.8 µM [inhibitor, full curve, poor fit]"

row,Structure (SMILES),Potency
1,Cc1ccc(OCCn2cccc2/C=C2/C(=O)NC(=O)N(Cc3ccco3)C2=O)cc1,inactive
2,O=C(O)Cc1cnc[nH]1,inactive
3,CC(C)CCOP(=O)(c1ccc(N(C)C)cc1)C(O)c1ccc(C(C)C)cc1 (stereo not given),"inconclusive: 12.6 µM [inhibitor, full curve, poor fit]"
4,C=CCN1C(=O)/C(=C\c2ccc(N3CCOCC3)o2)C(=O)NC1=S,inactive
5,Nc1ccc(Cl)cc1C(=O)c1ccccc1,"inconclusive: 70.8 µM [inhibitor, single point]"
6,CCOP(=O)(OCC)C(Cc1ccccc1)N=C(c1ccccc1)c1ccccc1 (stereo not given),active: 35.5 µM
7,CCOC(=O)[C@]12Cc3cc(C)ccc3[C@H]1N(C1CCCCC1)C(=O)c1cc(OC)ccc12,"inconclusive: 18.9 µM [inhibitor, full curve]"
8,Cc1cccc(OCCn2c(=O)oc3ccc(C)cc32)c1,"inconclusive: 79.4 µM [inhibitor, partial curve]"
9,CCN1CCN(S(=O)(=O)c2ccc(Cl)c(C(=O)Nc3ccc(C(=O)N(CC)CC)cc3)c2)CC1,inactive
10,CCCCCCCCCCCCCCCC[n+]1ccccc1,"inconclusive: 50.1 µM [inhibitor, partial curve]"
11,CCN(c1ccc(C(O)(C(=O)OC)C(F)(F)F)cc1)S(=O)(=O)c1ccc(C)cc1 (stereo not given),"inconclusive: 79.4 µM [inhibitor, partial curve]"
12,Cc1cc(OC(=O)c2cccs2)c2c3c(c(=O)oc2c1)CCCC3,"inconclusive: 14.1 µM [inhibitor, full curve]"
13,CCN(CC)S(=O)(=O)c1ccc(N=Cc2c(O)n(-c3ccccc3)c(=O)[nH]c2=O)cc1,"inconclusive: 12.6 µM [inhibitor, partial curve]"
14,CCC1=Nc2cc(C(=O)N3CCC4(CC3)OCCO4)ccc2Sc2ccc(C)cc21,"inconclusive: 63.1 µM [inhibitor, partial curve, poor fit]"
15,CCOP(=S)(OCC)Oc1nc(Cl)c(Cl)cc1Cl,"inconclusive: 11.2 µM [inhibitor, full curve]"
16,COC(=O)C1CN(C#N)N(c2ccc(Cl)cc2)C12c1ccccc1-c1ccccc12 (stereo not given),"inconclusive: 31.6 µM [inhibitor, partial curve]"
17,COCCCn1c(N)c(C(=O)OCCOC)c2nc3ccccc3nc21,inactive
18,CCOC(=O)C1(CCc2ccccc2)CCN(Cc2cccc3c2OCO3)CC1,inactive
19,COc1cccc(OC)c1C1=NCC(=O)Nc2c1oc1ccc(Br)cc21,"inconclusive: 79.4 µM [inhibitor, single point]"
20,CCOC(=O)[C@]12Cc3ccccc3[C@H]1N(C1CCCCC1)C(=O)c1cc(OC)ccc12,active: 3.16 µM
21,CCOC(=O)[C@]12Cc3cc(OC)ccc3[C@H]1N(C(C)C)C(=O)c1ccccc12,"inconclusive: 56.2 µM [inhibitor, partial curve]"
